Some of the results follow. Values were computed here from the reads of four pooled replicates and scatter widely.

This experiment concerns the target T1, Pho4 (S. cerevisiae) (UniProt P07270).
T1 sequence: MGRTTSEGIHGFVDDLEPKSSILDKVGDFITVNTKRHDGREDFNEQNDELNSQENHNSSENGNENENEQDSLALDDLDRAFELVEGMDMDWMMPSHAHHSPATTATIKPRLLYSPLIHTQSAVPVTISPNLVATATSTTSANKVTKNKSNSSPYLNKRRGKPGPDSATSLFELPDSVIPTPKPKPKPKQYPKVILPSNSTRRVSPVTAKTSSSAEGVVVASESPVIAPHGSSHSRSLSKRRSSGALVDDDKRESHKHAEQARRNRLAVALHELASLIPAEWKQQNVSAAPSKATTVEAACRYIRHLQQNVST
The experiment can be described thus: relative binding free energy (BET-seq); higher = weaker binding. The settings on record: reference: library average.
With GAGATCACGTGCGTTT, the “relative binding free energy” value was determined as 0.23 kcal/mol. Next, GCGGACACGTGTGAGT: 0.13 kcal/mol. Next, GTGGGCACGTGTACAG: -0.09 kcal/mol; TCGAACACGTGTTGAG: 0.13 kcal/mol; TCCGTCACGTGTTTTT: 0.24 kcal/mol. To TGTCACACGTGTAATT belongs 0.33 kcal/mol; to GGTGGCACGTGGGGCC, -0.21 kcal/mol; to ATCAGCACGTGGTCGT, -0.12 kcal/mol. On to GGCTCCACGTGGTGTG, for which the “relative binding free energy” value is -0.04 kcal/mol. To AAGGTCACGTGTTCAG belongs 0.23 kcal/mol. Next, AAGTGCACGTGTGCGA: -0.08 kcal/mol.

With GATGTCACGTGTATGT, the “relative binding free energy” value is 0.17 kcal/mol. To AGGATCACGTGGATGC belongs 0.15 kcal/mol; to GCTGTCACGTGTGTCG, 0.11 kcal/mol; to AGGTACACGTGGATAA, 0.32 kcal/mol. Next, TTATACACGTGTTGGT: 0.13 kcal/mol; ATAATCACGTGATTTT: 0.2 kcal/mol.

AGGTTCACGTGGAGAG: the “relative binding free energy” value stood at 0.29 kcal/mol. Next, GCAGGCACGTGGGTGG: -0.15 kcal/mol; GTGGACACGTGAGTGT: 0.33 kcal/mol; AAAGGCACGTGGGGAG: -0.23 kcal/mol. To TGAATCACGTGCGGAT belongs 0.16 kcal/mol.

As to TGAGTCACGTGGCCGT, the “relative binding free energy” value came to 0.16 kcal/mol. On to TCGTTCACGTGGGACG, for which the “relative binding free energy” value stood at 0.21 kcal/mol. To CGTGGCACGTGTGCGT belongs -0.09 kcal/mol. On to GTTAACACGTGTCTGT, for which the “relative binding free energy” value was -0.03 kcal/mol. To TCATGCACGTGGGGAT belongs -0.17 kcal/mol; to AATGTCACGTGGAGTT, 0.2 kcal/mol; to GTTAACACGTGCTGGT, 0.04 kcal/mol. TTTTACACGTGCACGT: the “relative binding free energy” value came to 0.11 kcal/mol. Next, GGTGGCACGTGAGATT: 0.24 kcal/mol. Next, AGTCACACGTGGTAAG: 0.19 kcal/mol; GCGGTCACGTGTGGGA: 0.25 kcal/mol.

On to TTAGGCACGTGAGGCA, for which the “relative binding free energy” value was 0.09 kcal/mol. To AGTGTCACGTGTTGGT belongs 0.07 kcal/mol; to TCTATCACGTGGTAGG, 0.13 kcal/mol. Next, TTGTGCACGTGTTATA: -0.06 kcal/mol; GCATTCACGTGGGGTA: 0.04 kcal/mol; TGGCGCACGTGGGTGG: -0.13 kcal/mol.

For AAGTTCACGTGATTAA, the “relative binding free energy” value came to 0.39 kcal/mol. TGTTTCACGTGCTGCT: the “relative binding free energy” value amounted to 0.17 kcal/mol. Next, TCGGTCACGTGGTAAT: 0.04 kcal/mol. To TGAGGCACGTGGCGGG belongs -0.2 kcal/mol; to GGTCGCACGTGTAGTC, 0.06 kcal/mol.

Consider TTGGTCACGTGGTGTA, for which the “relative binding free energy” value came to 0.1 kcal/mol. Next, TGGGGCACGTGCACGG: -0.09 kcal/mol; AAGTTCACGTGGTGGA: 0.23 kcal/mol. Next, AAGGGCACGTGTATGA: -0.23 kcal/mol; AGCTGCACGTGCGGTT: 0.03 kcal/mol. With GTGCACACGTGATATG, the “relative binding free energy” value is 0.24 kcal/mol.

On to TGGCTCACGTGAGTGT, for which the “relative binding free energy” value came to 0.36 kcal/mol. To GGTGACACGTGAATTA belongs 0.4 kcal/mol; to TTTAACACGTGTGCGC, 0.03 kcal/mol; to ATGTACACGTGTTGCT, -0.01 kcal/mol. In the case of GATGTCACGTGGGCCT, the “relative binding free energy” value is -0.01 kcal/mol. TTCTGCACGTGGGTTA: the “relative binding free energy” value was -0.11 kcal/mol. On to ATGGGCACGTGTTCAT, for which the “relative binding free energy” value is -0.22 kcal/mol.

As to TACGACACGTGGGGGT, the “relative binding free energy” value was -0.06 kcal/mol.

Consider TAGTACACGTGATCGG, for which the “relative binding free energy” value stood at 0.04 kcal/mol. To GTGGCCACGTGGTGTG belongs -0.02 kcal/mol.

As for TGTAGCACGTGTCGAG, the “relative binding free energy” value was -0.04 kcal/mol. Next, GTGGGCACGTGGGCTA: -0.13 kcal/mol. Next, CGTAGCACGTGGAGAT: 0.06 kcal/mol; TGGGTCACGTGCGGTG: -0.03 kcal/mol; TCGACCACGTGGTGGG: -0.04 kcal/mol. To GCGCGCACGTGTGTTG belongs -0.04 kcal/mol.

As to GTGTCCACGTGTGGGT, the “relative binding free energy” value was found to be 0.29 kcal/mol. Next, GAGTACACGTGGTCGT: 0.2 kcal/mol; AAGGGCACGTGGGTCT: -0.27 kcal/mol; TTCTTCACGTGCAGGT: 0.3 kcal/mol. To TGGCACACGTGATGTA belongs 0.23 kcal/mol. To TATGTCACGTGTTCGT belongs 0.1 kcal/mol; to TGCTGCACGTGTTCTG, -0.04 kcal/mol; to GTCTTCACGTGGTTGT, 0.31 kcal/mol. In the case of TTTTTCACGTGACAAT, the “relative binding free energy” value was determined as 0.4 kcal/mol. With AGCGGCACGTGGTCGT, the “relative binding free energy” value was -0.27 kcal/mol.

Turning to GTATTCACGTGATGCG, the “relative binding free energy” value is 0.18 kcal/mol. To TTATTCACGTGCTGTA belongs 0.15 kcal/mol.

As to TACGTCACGTGTGAGA, the “relative binding free energy” value was determined as 0.17 kcal/mol. Take GGATGCACGTGGTAGA: the “relative binding free energy” value was 0 kcal/mol. To GTGTACACGTGACTGT belongs 0.15 kcal/mol; to GGGGGCACGTGCTCGG, -0.18 kcal/mol. To TGTTACACGTGTCAGT belongs -0.04 kcal/mol; to GCGGTCACGTGCATGT, 0.13 kcal/mol. Next, CGATACACGTGGGGGC: 0.01 kcal/mol; TCTGCCACGTGGGGTA: -0.23 kcal/mol. On to GAAATCACGTGTGTTT, for which the “relative binding free energy” value came out at 0.26 kcal/mol. To TACGCCACGTGTGTGT belongs -0.05 kcal/mol; to GGTTCCACGTGATGTG, 0.29 kcal/mol; to AATTGCACGTGTACTT, -0.04 kcal/mol. Next, ATTTCCACGTGTGTGT: 0.04 kcal/mol; AGGAACACGTGGTAGT: -0.05 kcal/mol; GTGTTCACGTGACGTC: 0.44 kcal/mol.

Regarding AACTTCACGTGGGGCG, the “relative binding free energy” value is 0.16 kcal/mol. To GTGTCCACGTGGGAGT belongs -0.05 kcal/mol; to TTGAGCACGTGACGTT, 0.06 kcal/mol; to TTGTTCACGTGATATA, 0.45 kcal/mol. On to GCTTTCACGTGGGGGT, for which the “relative binding free energy” value was 0.09 kcal/mol. To CATTACACGTGGAGTT belongs 0.21 kcal/mol. To TGATTCACGTGTCGTT belongs 0.29 kcal/mol; to CGAGTCACGTGGGTCG, 0.09 kcal/mol; to TTGATCACGTGCTGAG, 0.02 kcal/mol. Next, TAGTACACGTGCTTAT: 0.15 kcal/mol.

GATCGCACGTGGTAGG: the “relative binding free energy” value was -0.1 kcal/mol.

For the sequence GAGCGCACGTGGGTGC, the “relative binding free energy” value was -0.19 kcal/mol. To TCCAGCACGTGGGGGG belongs -0.33 kcal/mol.

As for AGTTGCACGTGCCAGT, the “relative binding free energy” value came out at 0.08 kcal/mol. Next, ACTTCCACGTGGGGTG: -0.02 kcal/mol; TTATGCACGTGTAGTA: 0.03 kcal/mol. Next, GTTGTCACGTGGCATA: 0.1 kcal/mol; AGGCGCACGTGTGTGT: -0.16 kcal/mol. To GGTTGCACGTGGACTT belongs 0.16 kcal/mol; to ATGAGCACGTGGTCTG, -0.19 kcal/mol; to CGTGTCACGTGGCTTA, -0.04 kcal/mol.

As to ATCGTCACGTGTAAAT, the “relative binding free energy” value was 0.3 kcal/mol. To GTGAACACGTGGTATT belongs -0.02 kcal/mol; to TGTATCACGTGTGGAA, 0.15 kcal/mol. Next, TCGTTCACGTGGGGCT: 0.03 kcal/mol; TTACTCACGTGTTGAG: 0.22 kcal/mol; AGAGTCACGTGAAGGA: 0.23 kcal/mol.

Consider CTGTGCACGTGGGGCA, for which the “relative binding free energy” value was -0.28 kcal/mol. For GGAGACACGTGTGTGT, the “relative binding free energy” value was found to be 0.12 kcal/mol.

On to GGCGGCACGTGAGTGC, for which the “relative binding free energy” value was determined as 0.11 kcal/mol.

Take TGTTTCACGTGCGTAT: the “relative binding free energy” value amounted to 0.15 kcal/mol.

For TGGGGCACGTGGTAAT, the “relative binding free energy” value was -0.11 kcal/mol. To TGTTACACGTGAGTCT belongs 0.22 kcal/mol; to CTTGTCACGTGGTATT, -0.12 kcal/mol; to GGTTTCACGTGCGGGC, 0.28 kcal/mol. To TGTCTCACGTGTTTTC belongs 0.33 kcal/mol; to CGCTGCACGTGTAGGT, 0 kcal/mol. Next, GGAGTCACGTGGCGTT: 0.04 kcal/mol; TTATACACGTGGAGGC: 0.13 kcal/mol; TGCTACACGTGGTTAG: 0.04 kcal/mol. As to TTGTACACGTGCAATT, the “relative binding free energy” value was 0.03 kcal/mol. Take TGAATCACGTGGTCTG: the “relative binding free energy” value came out at 0.08 kcal/mol. Next, TTTGCCACGTGATGGA: 0.12 kcal/mol; TATCTCACGTGGGCTT: 0.11 kcal/mol. To ATATTCACGTGCTGGG belongs 0.16 kcal/mol; to GGGTACACGTGTAATA, 0.17 kcal/mol. To GTTGTCACGTGCGTGT belongs 0.1 kcal/mol; to CAGCGCACGTGGAGGG, -0.21 kcal/mol; to TTGGACACGTGGCAGG, -0.06 kcal/mol. With TGGGTCACGTGAAGTT, the “relative binding free energy” value stood at 0.39 kcal/mol. On to CCGGGCACGTGTTTGG, for which the “relative binding free energy” value was -0.1 kcal/mol. To ATTATCACGTGGGCTT belongs -0.04 kcal/mol. As to TCTGACACGTGGGTAG, the “relative binding free energy” value is -0.14 kcal/mol.

The values above are taken from the BET-seq Pho4 binding data (Le et al. 2018).
